{
  "source": "PubChem BioAssay AID686978",
  "about": "(National Center for Advancing Translational Sciences (NCATS), 2013)",
  "note": "Several values for one entry are separate records, joined by “and”; a condition that tells them apart may be missing. Equal entries are not always repeated. The whole screen tested about 420,000 compounds, of which about 64,000 (15%) were called active. This list was built around the results that the source calls inconclusive (neither active nor inactive); the mix of calls is not that of the screen. Calls follow the shape of the dose curve; as a rule, active = well fitted inhibition curve with a large enough effect; inconclusive = small, poorly fitted or top-dose-only effect; inactive = flat fitted curve, though single readings scatter. Potencies of inconclusive entries are left out as doubtful fits. Where a structure was tested more than once in an assay, its records may differ in their call.",
  "data": [
    {"test": "qHTS for Inhibitors of human tyrosyl-DNA phosphodiesterase 1 (TDP1): qHTS in cells in absence of CPT; also: nearly all actives have a fitted effect of over 55% in size; also: potency is read from the fitted curve at half-maximal effect; tags tell the direction and shape of the fitted curve; as to activity change, negative = growth inhibition: % is scaled to controls: 0 for no effect and ±100 for the full control effect", "conditions": "DT40 Tdp1-/- hTDP1 cells, no CPT, ATP luminescence, 48 h; activity change, negative = growth inhibition: at 46.2 µM (top of the series) unless noted", "method_in_brief": "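Luminescent ATP content (CellTiter-Glo) served as the growth readout. Knockout chicken DT40 cells expressing human TDP1 were exposed to compounds without camptothecin for a minimum 48 hr at 37 °C.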", "values": [
      {"compound": "CCC(Cc1c(I)cc(I)c(N)c1I)C(=O)O", "note": "(stereo not drawn)", "Potency": "active: 9.03 µM"},
      {"compound": "Cc1ccccc1Oc1nc2ccccn2c(=O)c1/C=C(\\C#N)C(=O)Nc1c(C)n(C)n(-c2ccccc2)c1=O", "Potency": "inconclusive [inhibitor, partial curve]"},
      {"compound": "COc1cccc2ccc(CC(O)(c3ccccc3)c3ccccc3)nc12", "Potency": "active: 25.9 µM"},
      {"compound": "Cc1ccc2nc3sc(C(=O)N4CCOCC4)c(N)c3cc2c1", "Potency": "inconclusive [inhibitor, single point]"},
      {"compound": "Cn1c(N)c(NC(=S)NC2CCCCC2)c(=O)n(C)c1=O", "Potency": "inactive"},
      {"compound": "Cc1[nH]n(-c2ccccc2)c(=O)c1/C=N/c1ccccn1", "Potency": "inconclusive [inhibitor, single point]"},
      {"compound": "COc1ccc(-c2noc(C3CCCN(S(=O)(=O)c4cccc(Cl)c4C)C3)n2)cc1OC", "note": "(stereo not drawn)", "Potency": "inconclusive [inhibitor, single point]"},
      {"compound": "COc1cc([N+](=O)[O-])ccc1NC(=O)Nc1cnccn1", "Potency": "inactive"},
      {"compound": "O=C(CCl)Nc1cc(SCC(O)CO)cc([N+](=O)[O-])c1", "note": "(stereo not drawn)", "Potency": "inconclusive [inhibitor, single point]"},
      {"compound": "O=C(c1cccc(Cl)c1)N1CCC2CC1c1cc(-c3ccccc3)ccc12", "note": "(stereo not drawn)", "Potency": "inconclusive [inhibitor, single point]"},
      {"compound": "Cc1ccccc1N1CCN(C2CCCN(C(=O)CCN3CCCO3)C2)CC1", "note": "(stereo not drawn)", "Potency": "inactive"},
      {"compound": "Cc1cccc(C=CC(=O)c2ccccc2)c1", "Potency": "active: 23.1 µM"},
      {"compound": "COc1ccc2c(Sc3ccc(C)cc3)c(C(=O)NCC(C)c3ccccc3)[nH]c2c1", "note": "(stereo not drawn)", "Potency": "inconclusive [inhibitor, single point]"},
      {"compound": "O=C(Cn1nc(C(=O)O)c2ccccc2c1=O)Nc1cccc(S(=O)(=O)N2CCCCC2)c1", "Potency": "inactive"},
      {"compound": "COCc1c(C(=O)NC2CCCC2)cnn1-c1nccc(-c2cc(C)sc2C)n1", "Potency": "inconclusive [inhibitor, single point]"},
      {"compound": "COc1ccc(CNC(=O)C2(C)Cc3c(-c4cccc(C(N)=O)c4)ccnc3O2)cc1OC", "note": "(stereo not drawn)", "activity change, negative = growth inhibition": "inconclusive: 2.8% [inhibitor]"},
      {"compound": "COc1ccc(Sc2ccc(/C=C3\\C(=O)NN(c4ccccc4)C3=O)o2)cc1", "Potency": "inconclusive [inhibitor, single point]"},
      {"compound": "C/C(=N\\NC(=O)C1CC1c1ccccc1)c1ccc(C)s1", "note": "(stereo not drawn)", "Potency": "inactive"},
      {"compound": "O=C(Nc1ccc2nc3n(c(=O)c2c1)CCCC3)c1cccc(F)c1", "Potency": "inactive"},
      {"compound": "CCCCN(C)C(=O)Cn1c(=O)oc2cc(S(=O)(=O)N3CC(C)CC(C)C3)ccc21", "note": "(stereo not drawn)", "Potency": "inconclusive [inhibitor, single point]"},
      {"compound": "Cc1ccc2cc(CN(CCCN(C)C)C(=S)NCc3ccccc3)c(=O)[nH]c2c1C", "Potency": "inconclusive [inhibitor, single point]"},
      {"compound": "Cc1cccc(C(=O)N2CCCN(C(=O)c3cccc(C)c3)CC2)c1", "Potency": "inconclusive [inhibitor, single point]"},
      {"compound": "C[N+](C)(CC#Cc1ccccc1)CC(=O)c1ccc(Cl)cc1", "Potency": "inconclusive [inhibitor, single point]"},
      {"compound": "Cc1ccc(-c2cc(C(=O)Nc3cccnc3)[nH]n2)c(O)c1C", "Potency": "inconclusive [inhibitor, single point]"},
      {"compound": "Cc1ccc(S(=O)(=O)NNC(=O)Nc2cccc(F)c2)c(C)c1", "Potency": "inconclusive [inhibitor, single point]"},
      {"compound": "Cc1c(C(=O)c2ccc(F)cc2)c2ccccn2c1CCc1ccccn1", "Potency": "inconclusive [inhibitor, single point]"},
      {"compound": "CCCNC(=O)Cn1nc(-c2ccc(C)c(C)c2)c2cnc3ccc(OC)cc3c21", "Potency": "active: 8.2 µM"},
      {"compound": "O=C(CSc1ccc(F)cc1)Nc1ccccc1N1CCOCC1", "Potency": "inconclusive [inhibitor, single point]"},
      {"compound": "CCn1nnc(NC(=O)COc2ccc(C3CCCCC3)cc2)n1", "Potency": "inconclusive [inhibitor, partial curve]"},
      {"compound": "CN(c1ccccc1)S(=O)(=O)c1cccc(C(=O)NCCc2ccc(O)c(O)c2)c1", "Potency": "active: 11.6 µM"},
      {"compound": "O=C(CCn1nnc2ccccc2c1=O)N[C@@H](Cc1c[nH]c2ccccc12)C(=O)O", "Potency": "inactive"},
      {"compound": "NNC(=O)C(Cc1ccccc1)NC(=O)OCc1ccccc1", "note": "(stereo not drawn)", "Potency": "inactive"},
      {"compound": "COc1ccc(N(CC(=O)N2CCN(c3ccccc3F)CC2)S(=O)(=O)c2c(C)noc2C)cc1", "activity change, negative = growth inhibition": "inconclusive: -18.9% [inhibitor]"},
      {"compound": "CCS(=O)(=O)Nc1ccc(C2=NN(C(=O)c3ccccc3)C(c3cccs3)C2)cc1", "note": "(stereo not drawn)", "Potency": "active: 20.6 µM"},
      {"compound": "O=c1c2c(n3nnnc3n1Cc1ccccc1)-c1ccccc1CC21CCCC1", "Potency": "inconclusive [inhibitor, partial curve]"},
      {"compound": "COc1ccc(-c2ccc(OC)c([C@H]3[C@@H]4C=CCC[C@@]4(C)C(=O)N3Cc3ccccc3)c2)cc1OC", "Potency": "inconclusive [inhibitor, single point]"},
      {"compound": "Cc1ccc(Cl)cc1NC(=S)NCc1cccn1C", "Potency": "active: 18.4 µM"},
      {"compound": "CCCCn1c(SCC(=O)NC2CC(C)(C)NC(C)(C)C2)nc2cc(S(N)(=O)=O)ccc21", "Potency": "inactive"},
      {"compound": "COc1ccc(CNC(=O)COC(=O)c2c(-c3c(F)cccc3Cl)noc2C)cc1OC", "Potency": "inconclusive [inhibitor, single point]"},
      {"compound": "Cc1ccc2cc(C)c3nnc(SCC(=O)Nc4nc5c(s4)CCCC5)n3c2c1C", "Potency": "inconclusive [inhibitor, single point]"},
      {"compound": "CC(C)[C@@H]1Cc2[nH]c(=O)[nH]c(=O)c2[C@H](C)O1", "Potency": "inactive"},
      {"compound": "COc1ccc(-c2csc(N3CCN(c4cc5c(cc4Cl)nc(-c4ccncc4)n5CCOCCO)CC3)n2)cc1", "Potency": "inconclusive [inhibitor, single point]"},
      {"compound": "COC(=O)c1c(NC(=O)C(C)(C)C)sc2c1CCN(Cc1ccccc1)C2", "Potency": "inconclusive [inhibitor, single point]"},
      {"compound": "CCOC(=O)c1c(C)c(C(=O)Nc2ccc(F)cc2)c(C)n1C", "Potency": "inconclusive [inhibitor, single point]"},
      {"compound": "COc1ccc(OC)c(C(=O)CCCCC(=O)c2cc(OC)ccc2OC)c1", "Potency": "active: 18.4 µM"},
      {"compound": "COc1ccc(NC(=O)c2ccc3ccccc3c2OC)cc1", "Potency": "inconclusive [inhibitor, single point]"},
      {"compound": "COc1ccccc1NC(=O)Cn1cnc2ccc(S(=O)(=O)N3CCC(C)CC3)cc2c1=O", "Potency": "active: 23.1 µM"},
      {"compound": "COCCN(C(=O)c1csnn1)C(C(=O)NC1CCCCC1)c1ccccc1F", "note": "(stereo not drawn)", "activity change, negative = growth inhibition": "inconclusive: -34.3% [inhibitor]"},
      {"compound": "COC(=O)[C@@]12C[C@@H](CC(=O)NCc3ccc(C)o3)C(=O)N(Cc3ccc4c(c3)OCO4)C1=CCC(C)(C)C2", "Potency": "active: 11.6 µM"},
      {"compound": "COc1ccc(CNC(=O)c2cc3sccc3n2Cc2ccc(F)cc2)cc1", "Potency": "inconclusive [inhibitor, single point]"},
      {"compound": "Cc1ccc(OCc2ccccc2C)c([N+](=O)[O-])n1", "Potency": "inconclusive [inhibitor, single point]"},
      {"compound": "COCCCN1C(=O)c2[nH]nc(-c3cc(C)ccc3O)c2C1c1ccc(F)cc1", "note": "(stereo not drawn)", "Potency": "inconclusive [inhibitor, single point]"},
      {"compound": "O=C(Nc1ccccc1-c1nnn(CC(=O)N2CCCc3ccccc32)n1)c1ccco1", "Potency": "inconclusive [inhibitor, single point]"},
      {"compound": "CN(C)c1ccc(O)c2c1C[C@H]1C[C@H]3[C@H](N(C)C)C(=O)C(C(N)=O)=C(O)[C@@]3(O)C(=O)C1=C2O", "Potency": "active: 15 µM and active: 21.1 µM"},
      {"compound": "Cc1cc(C)c(NC(=O)Nc2ccccc2)c(Cl)c1", "Potency": "inconclusive [inhibitor, partial curve]"},
      {"compound": "Cc1nn(-c2ccccc2)c(-n2cccc2)c1C(=O)N1CCN(c2ccccc2)CC1", "Potency": "active: 23.1 µM"},
      {"compound": "COc1cc(/C=C2\\SC(=Nc3ccc(O)cc3)NC2=O)cc(OC)c1O", "Potency": "active: 5.17 µM"},
      {"compound": "COc1cc(-c2nnc3sc(C4CCCCC4)nn23)cc(OC)c1OC", "Potency": "active: 23.1 µM"},
      {"compound": "CCOC(=O)c1ccc(OC(=O)c2cn(-c3ccc(C)cc3)c(=O)c3ccccc23)cc1", "Potency": "inconclusive [inhibitor, single point]"},
      {"compound": "COc1ccc(C)cc1NC(=O)Nc1ccc(C(=O)N2CCCC2)cc1", "Potency": "inconclusive [inhibitor, partial curve, poor fit]"},
      {"compound": "COc1cccc(-c2nccc(NCc3ccc(OC)cc3OC)n2)c1", "Potency": "inconclusive [inhibitor, partial curve]"},
      {"compound": "CN(Cc1ccccc1)c1c([N+](=O)[O-])c(=O)n(C)c2ccccc12", "Potency": "active: 14.6 µM"},
      {"compound": "CCOC(=O)c1cc(NC(=O)CNCC(c2ccccc2)N(C)C)cc(C(=O)OCC)c1", "note": "(stereo not drawn)", "activity change, negative = growth inhibition": "inconclusive: -32.4% [inhibitor]"},
      {"compound": "Cc1cccc(OCC(=O)Nc2ccc(S(=O)(=O)Nc3onc(C)c3C)cc2)c1C", "activity change, negative = growth inhibition": "inconclusive: -27.3% [inhibitor]"},
      {"compound": "COc1ccc(-c2ccc(SCC(=O)NC3CCCCC3)nn2)cc1OC", "Potency": "inconclusive [inhibitor, single point]"},
      {"compound": "Cc1ccc(NC(=O)CSCC(=O)Nc2cc(Cl)ccc2N2CCN(C)CC2)cc1", "Potency": "inconclusive [inhibitor, single point]"},
      {"compound": "O=C1NC[C@H](Cc2ccc(O)cc2)N(CCc2cccc3ccccc23)C1=O", "Potency": "inactive"},
      {"compound": "COc1ccc(-n2nc(C(=O)NCC(=O)N3CCN(c4ccccn4)CC3)c3ccccc3c2=O)cc1OC", "Potency": "inconclusive [inhibitor, partial curve]"}
    ]}
  ]
}
